The record followed here is the BET-seq Pho4 binding data (Le et al. 2018).

Some of the results follow. These are noisy estimates, calculated here from bound and input reads.

This assay addresses T1, Pho4 (S. cerevisiae) (UniProt P07270).
T1 sequence: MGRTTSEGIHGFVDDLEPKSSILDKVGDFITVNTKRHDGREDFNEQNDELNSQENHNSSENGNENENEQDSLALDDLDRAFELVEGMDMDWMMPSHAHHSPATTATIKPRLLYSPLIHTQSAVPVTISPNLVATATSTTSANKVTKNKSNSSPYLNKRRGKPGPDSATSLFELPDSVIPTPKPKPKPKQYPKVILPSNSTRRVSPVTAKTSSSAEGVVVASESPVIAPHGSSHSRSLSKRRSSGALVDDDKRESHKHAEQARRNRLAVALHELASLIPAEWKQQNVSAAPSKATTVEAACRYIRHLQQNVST
The assay is described as follows: relative binding free energy (BET-seq); higher = weaker binding. The settings on record: reference: library average.
On to CTTGACACGTGAATTT, for which the “relative binding free energy” value stood at 0.38 kcal/mol.

Consider CCATTCACGTGGGGGT, for which the “relative binding free energy” value stood at 0.03 kcal/mol.

Consider TTTTACACGTGTCTTA, for which the “relative binding free energy” value was -0.01 kcal/mol.

GAGTTCACGTGGTAAG: the “relative binding free energy” value was determined as 0.39 kcal/mol.

For the sequence ATAGGCACGTGATGTC, the “relative binding free energy” value was -0.07 kcal/mol.

With ATGTTCACGTGGTTGT, the “relative binding free energy” value turned out to be 0.12 kcal/mol.

ATGTCCACGTGAGTGA: the “relative binding free energy” value worked out at 0.21 kcal/mol.

As for TATTCCACGTGTGGGG, the “relative binding free energy” value was determined as 0.28 kcal/mol.

As to CATTGCACGTGTGTGT, the “relative binding free energy” value worked out at 0.08 kcal/mol.

Consider GCGGGCACGTGTACGG, for which the “relative binding free energy” value was -0.12 kcal/mol.

In the case of TTTTACACGTGATCGT, the “relative binding free energy” value stood at 0.12 kcal/mol.

In the case of AGTTTCACGTGAATTA, the “relative binding free energy” value came to 0.24 kcal/mol.

As for ACTGTCACGTGTAATG, the “relative binding free energy” value came to 0.11 kcal/mol.

Turning to GGTGTCACGTGATCGA, the “relative binding free energy” value is 0.15 kcal/mol.

Regarding TTCATCACGTGGTATT, the “relative binding free energy” value amounted to 0.03 kcal/mol.

With TCCGTCACGTGGTTTT, the “relative binding free energy” value amounted to 0.12 kcal/mol.

For the sequence GTAACCACGTGTTGGG, the “relative binding free energy” value amounted to 0.01 kcal/mol.

As to CTTTGCACGTGAAAGT, the “relative binding free energy” value came to 0.2 kcal/mol.

AGTGCCACGTGCAGGG: the “relative binding free energy” value is -0.24 kcal/mol.

For the sequence GTTGTCACGTGCTGTG, the “relative binding free energy” value came out at 0.12 kcal/mol.

On to GTAGCCACGTGGCGTG, for which the “relative binding free energy” value is -0.12 kcal/mol.

Turning to ATAATCACGTGTGGCT, the “relative binding free energy” value is 0.21 kcal/mol.

In the case of GCGAGCACGTGGTGAT, the “relative binding free energy” value is -0.09 kcal/mol.

Consider TTTCTCACGTGATGAA, for which the “relative binding free energy” value stood at 0.49 kcal/mol.

For GTTAACACGTGAGGGG, the “relative binding free energy” value came to 0.3 kcal/mol.

Turning to GGGTCCACGTGTGTGA, the “relative binding free energy” value was found to be 0.03 kcal/mol.

For TGTAGCACGTGGTGAA, the “relative binding free energy” value is -0.17 kcal/mol.

Consider GCTTTCACGTGATAGT, for which the “relative binding free energy” value was found to be 0.22 kcal/mol.

As to CGTGCCACGTGGGGGG, the “relative binding free energy” value was -0.27 kcal/mol.

With CTGTTCACGTGGAGGC, the “relative binding free energy” value turned out to be 0.16 kcal/mol.

Regarding GTACGCACGTGGTCGT, the “relative binding free energy” value was -0.21 kcal/mol.

Take GGCCTCACGTGGTATG: the “relative binding free energy” value amounted to 0.25 kcal/mol.

Turning to TGTTACACGTGTTTTC, the “relative binding free energy” value was 0.16 kcal/mol.

On to CTTGTCACGTGAGAGT, for which the “relative binding free energy” value is 0.21 kcal/mol.

As for GGGGGCACGTGTGCGA, the “relative binding free energy” value is -0.08 kcal/mol.

With AGCTGCACGTGTTGTA, the “relative binding free energy” value was -0.05 kcal/mol.

On to TCGGGCACGTGATAGG, for which the “relative binding free energy” value was 0 kcal/mol.

Regarding GTGGCCACGTGGCGGA, the “relative binding free energy” value was -0.05 kcal/mol.

For GCGGTCACGTGAGGCT, the “relative binding free energy” value is 0.39 kcal/mol.

GTGTTCACGTGTTTTA: the “relative binding free energy” value turned out to be 0.34 kcal/mol.

As to GATTGCACGTGCGTGT, the “relative binding free energy” value came to 0.07 kcal/mol.

On to TTGGGCACGTGATCTT, for which the “relative binding free energy” value was -0.12 kcal/mol.

Regarding AGATGCACGTGGGGGT, the “relative binding free energy” value is -0.12 kcal/mol.

With TGAGTCACGTGGTCTT, the “relative binding free energy” value was 0.12 kcal/mol.

As to TGGTGCACGTGTGGGC, the “relative binding free energy” value worked out at 0.08 kcal/mol.

Turning to GGAATCACGTGTCTGT, the “relative binding free energy” value came to 0.32 kcal/mol.

Consider TGGCGCACGTGGGAGA, for which the “relative binding free energy” value was -0.06 kcal/mol.

TAATACACGTGTGATT: the “relative binding free energy” value came out at 0.09 kcal/mol.

As to TTCTACACGTGTAGGT, the “relative binding free energy” value stood at 0.04 kcal/mol.

AGGCGCACGTGGGTTA: the “relative binding free energy” value is -0.27 kcal/mol.

AAGTTCACGTGATGCG: the “relative binding free energy” value was 0.21 kcal/mol.

Consider GTTAGCACGTGCTGGC, for which the “relative binding free energy” value was -0.11 kcal/mol.

For the sequence TGGAGCACGTGAGGCG, the “relative binding free energy” value amounted to 0.23 kcal/mol.

As to AGTTACACGTGTTAGT, the “relative binding free energy” value is 0.13 kcal/mol.

Take CCTGACACGTGTGTGG: the “relative binding free energy” value came out at 0.04 kcal/mol.

GCCATCACGTGGGGTG: the “relative binding free energy” value is 0.07 kcal/mol.

In the case of GTGAGCACGTGCTGGA, the “relative binding free energy” value was -0.11 kcal/mol.

Turning to TGTCTCACGTGATGTG, the “relative binding free energy” value was 0.26 kcal/mol.

Take TTGAGCACGTGGCTTG: the “relative binding free energy” value was -0.03 kcal/mol.

As for GCTGGCACGTGGCAGG, the “relative binding free energy” value is -0.23 kcal/mol.

With CTTTTCACGTGGTGTG, the “relative binding free energy” value came to 0.1 kcal/mol.

Take GGTTGCACGTGCAAGG: the “relative binding free energy” value turned out to be 0.01 kcal/mol.

Consider TTCTTCACGTGTGAGA, for which the “relative binding free energy” value amounted to 0.3 kcal/mol.

As to AGATACACGTGTAAGG, the “relative binding free energy” value was 0.31 kcal/mol.

For the sequence TCAAGCACGTGGTATT, the “relative binding free energy” value is -0.1 kcal/mol.

With TGCGCCACGTGTAGGT, the “relative binding free energy” value was -0.09 kcal/mol.

For GTCGTCACGTGCTGTT, the “relative binding free energy” value turned out to be 0.04 kcal/mol.

On to TGGTGCACGTGCACGT, for which the “relative binding free energy” value is -0.23 kcal/mol.

CTTTTCACGTGTGGGC: the “relative binding free energy” value is 0.39 kcal/mol.

Regarding TGTGGCACGTGGTTAC, the “relative binding free energy” value was -0.13 kcal/mol.

Consider TATACCACGTGGGGGT, for which the “relative binding free energy” value was -0.26 kcal/mol.

Regarding TGACGCACGTGCGGAG, the “relative binding free energy” value is -0.1 kcal/mol.

Take AGATTCACGTGGCGAT: the “relative binding free energy” value stood at 0.19 kcal/mol.

On to TGGTGCACGTGTATGG, for which the “relative binding free energy” value is 0.04 kcal/mol.

Regarding CGGTTCACGTGCATTT, the “relative binding free energy” value came out at 0.29 kcal/mol.

For TTGTACACGTGCGTGT, the “relative binding free energy” value is 0.01 kcal/mol.

As for TTATTCACGTGAGTTA, the “relative binding free energy” value came to 0.37 kcal/mol.

Take GGTATCACGTGTGTGA: the “relative binding free energy” value was found to be 0.18 kcal/mol.

Take GGGATCACGTGCGTTG: the “relative binding free energy” value was 0.16 kcal/mol.

For the sequence TATTTCACGTGTTGAA, the “relative binding free energy” value worked out at 0.41 kcal/mol.

As to GTTGACACGTGTTCGG, the “relative binding free energy” value was determined as 0.21 kcal/mol.

As to GTTTTCACGTGTCTAT, the “relative binding free energy” value came out at 0.34 kcal/mol.

For the sequence TTCAGCACGTGGGGTT, the “relative binding free energy” value was -0.18 kcal/mol.

As to ATGTGCACGTGGGGCA, the “relative binding free energy” value was -0.27 kcal/mol.

With GGTTTCACGTGGTACA, the “relative binding free energy” value is 0.29 kcal/mol.

For GTATGCACGTGTAGAG, the “relative binding free energy” value was -0.07 kcal/mol.

In the case of TGTGACACGTGGATAT, the “relative binding free energy” value turned out to be 0.01 kcal/mol.

Take TTTTGCACGTGTGAAT: the “relative binding free energy” value worked out at 0.23 kcal/mol.

With CTTAACACGTGGTGTG, the “relative binding free energy” value was -0.14 kcal/mol.

In the case of GTTTGCACGTGGGATG, the “relative binding free energy” value stood at 0.03 kcal/mol.

On to TTAGGCACGTGTCGTA, for which the “relative binding free energy” value is -0.11 kcal/mol.

Take TTGAGCACGTGTGTGG: the “relative binding free energy” value was -0.07 kcal/mol.

TATAACACGTGTGCTG: the “relative binding free energy” value was -0.07 kcal/mol.

For the sequence TTTAGCACGTGTTGCT, the “relative binding free energy” value is 0.04 kcal/mol.

Regarding GGTGACACGTGGTGTT, the “relative binding free energy” value is -0.05 kcal/mol.

Regarding GCTTGCACGTGGGGGC, the “relative binding free energy” value was -0.18 kcal/mol.

Take CAAGGCACGTGGATGA: the “relative binding free energy” value was determined as 0.02 kcal/mol.

In the case of CTGATCACGTGCGGGG, the “relative binding free energy” value turned out to be 0.09 kcal/mol.

Regarding TGGGGCACGTGCTGCC, the “relative binding free energy” value was -0.11 kcal/mol.

For AAATTCACGTGGATGG, the “relative binding free energy” value amounted to 0.28 kcal/mol.

With TTTGTCACGTGCTAAA, the “relative binding free energy” value was determined as 0.08 kcal/mol.

For TTAGGCACGTGCGAAT, the “relative binding free energy” value was -0.03 kcal/mol.

Regarding CAGTACACGTGTTTTT, the “relative binding free energy” value stood at 0.05 kcal/mol.

GATGGCACGTGATTAA: the “relative binding free energy” value was -0.04 kcal/mol.

Consider GAGTACACGTGGTAAT, for which the “relative binding free energy” value was 0.21 kcal/mol.

With GTGGACACGTGCGAGG, the “relative binding free energy” value was -0.02 kcal/mol.

Consider AAAGACACGTGGTATG, for which the “relative binding free energy” value was found to be 0.02 kcal/mol.

Regarding CTAGTCACGTGATATT, the “relative binding free energy” value is 0.25 kcal/mol.

Take TTGGTCACGTGAAAAT: the “relative binding free energy” value was determined as 0.28 kcal/mol.

On to TACTGCACGTGATGTA, for which the “relative binding free energy” value came out at 0.02 kcal/mol.

Regarding TACTGCACGTGGGATG, the “relative binding free energy” value was -0.22 kcal/mol.

As to TGTGGCACGTGAGGGA, the “relative binding free energy” value came to 0.08 kcal/mol.

For the sequence TATTTCACGTGTGTAA, the “relative binding free energy” value stood at 0.16 kcal/mol.

In the case of AGCGTCACGTGAATAG, the “relative binding free energy” value is 0.44 kcal/mol.

As for TAAGGCACGTGGAGGT, the “relative binding free energy” value was -0.14 kcal/mol.
